According to PubChem BioAssay (NCATS):
Several values for one entry are separate records, joined by “and”; a condition that tells them apart may be missing. Identical values can stand only once. This list was built around the results that the source calls inconclusive (neither active nor inactive); the mix of calls is not that of the screen. For some assays here: Potencies of inconclusive entries are doubtful fits and often do not repeat. For some assays here: A note “side channel” means that the fit belongs to a control or component signal, not to the main read-out. Activity calls are given as the source filed them. Unless noted, calls come from the whole dose curve; as a rule, active = well fitted curve in the direction sought with a large enough effect; inconclusive = small, poorly fitted or top-dose-only effect, or another doubt; inactive = no such curve, though single readings can be large; an effect the other way counts as inactive or inconclusive.

How the values were obtained:
[1] = AP1 Signaling Pathway (AID 357; active = well fitted curve in either direction with a large enough effect, not every such curve was filed as active; inconclusive = small, poorly fitted or top-dose-only effect, or another doubt; note: top concentration of the series differs between compounds; % is set by controls: 0 for no effect and ±100 for the full control effect); settings: ME-180 AP-1-bla reporter, EGF-induced, beta-lactamase ratio, 5 h; at 17.2 µM (top of the series) unless noted
Method in brief: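 AP-1-bla ME-180 cells with beta-lactamase reporter under AP-1 response element, stimulated with EC50 EGF; compounds titrated, 5 hours at 37 degrees Celsius. CCF4 read at 460/530 nm ratio; positive and negative modulators judged by AC50.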

[2] = molecular target: 3',5'-cyclic-AMP phosphodiesterase 4B (Homo sapiens) (UniProt Q07343); assay: qHTS Assay for Inhibitors of PDE-IV (AID 607; active = well fitted activation curve with a large enough effect in the main read-out, with a control signal flat, not every such curve was filed as active; inconclusive = small, poorly fitted or top-dose-only effect, or effect the other way, or a change in a side signal; note: potency is the fitted concentration of half-maximal effect; for activation (PDE inhibition): % of control where 0% means no effect); settings: HEK293 ACTOne CNG channel cells, membrane potential fluorescence; activation (PDE inhibition): at 22.9 µM (top of the series)
Method in brief: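 Cell-based read-out of cAMP via a modified cyclic nucleotide-gated channel and membrane potential dye (535/590 nm) in HEK293 cells expressing PDE4 endogenously. Compounds tested up to 22.9 uM final; 100 uM RO 20-1724 reference.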

[3] = molecular target: Cytochrome P450 2C9 (Homo sapiens) (UniProt P11712); assay: qHTS Assay for Inhibitors and Substrates of Cytochrome P450 2C9 (AID 883); settings: recombinant CYP2C9, luciferin-H luminescence, 60 min; activity change, negative = inhibition: at 57.1 µM (top of the series); note: potency is the fitted concentration of half-maximal effect; nearly all actives have a fitted effect of over 60% in size
Method in brief: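 Luminescent read-out of deoxyluciferin hydroxylation, normalized to 57uM sulphaphenazole (AC100). Reaction: 10nM enzyme, 100uM Luciferin-H (equal to KM), 25mM KPO4, 10 min compound preincubation, then 60 min with NADPH regeneration, both at 37C.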

[4] = qHTS Assay for Identification of Small Molecule Agonists for Hypoxia Response Element Signaling Pathway (AID 914; active = well fitted activation curve with a large enough effect in the signal ratio, with a control signal flat, not every such curve was filed as active; inconclusive = small, poorly fitted or top-dose-only effect, or effect the other way, or a change in a side signal; the % refers to the signal ratio; note: potency is the fitted concentration of half-maximal effect; for activation: top concentration of the series differs between compounds; % of control where 0% means no effect); settings: ME-180 HRE-bla reporter, beta-lactamase ratio, CoCl2, 17 h; activation: stronger effect = higher value
Method in brief: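 ME-180 cells carrying an HRE-driven beta-lactamase reporter were treated with compounds in a titration series plus an EC50 level of CoCl2 for 17 h at 37 degrees Celsius; CCF4 readout as the 460nm/530nm ratio gave AC50 values.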

[5] = molecular target: Cytochrome P450 3A4 (Homo sapiens) (UniProt P08684); assay: qHTS Assay for Activators of Cytochrome P450 3A4 (AID 885); note: potency is the fitted concentration of half-maximal effect; nearly all actives have a fitted effect of over 65% in size
Method in brief: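 Signal was normalized against complete inhibition by 57 uM ketoconazole. The reaction used 20nM CYP3A4 with 25uM Luciferin-PPXE, 10-min compound preincubation and a 60-min NADPH-supported step at RT.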

[6] = qHTS Assay for Identification of Small Molecule Antagonists for NFkB Signaling Pathway (AID 895; active = well fitted inhibition curve with a large enough effect in the signal ratio, with a control signal flat, not every such curve was filed as active; inconclusive = small, poorly fitted or top-dose-only effect, or effect the other way, or a change in a side signal; the % refers to the signal ratio; note: potency is the fitted concentration of half-maximal effect; for activity change, negative = inhibition: % is set by controls: 0 for no effect and ±100 for the full control effect); settings: NFkB beta-lactamase reporter cells, FRET ratio 460/530, stimulated with 10 pM TNF alpha; activity change, negative = inhibition: at 38.3 µM (top of the series)
Method in brief: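 Beta-lactamase reporter read-out (460 and 530 nm emission ratio, 405 nm excitation, 2 hrs substrate loading RT) after 5 hr stimulation with 10 pM TNF alpha in compound-treated NFkB-bla ME-180 cells in low-serum medium.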

[7] = qHTS Assay for Identification of Small Molecule Antagonists for Thrombopoietin (TPO) Signaling Pathway (AID 918); settings: TPO-dependent cell signaling reporter, antagonist mode; activity change, negative = inhibition: at 38.5 µM (top of the series); note: nearly all actives have a fitted effect of over 60% in size; note: potency is the fitted concentration of half-maximal effect
Method in brief: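 Murine Ba/F3 cells expressing human TPO receptor and a Glycoprotein IIb promoter-luciferase reporter, IL-3-starved overnight, treated with compound plus TPO at EC50 (26 pM final). After 24 h at 37 C, luminescence read to detect inhibitors.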

[8] = Confirmation and Secondary Assay for Modulators of Hemoglobin Beta Chain Splicing at IVS2 705 locus (AID 930); note: potency is the fitted concentration of half-maximal effect
Method in brief: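 HeLa cells stably carrying EGFP interrupted by mutant beta-globin IVS2-705 intron (CMV-driven) were seeded at 500 cells/well, treated next day with compound for 2 days at 37C; corrected splicing restores EGFP, read as total peak GFP intensity per well.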

[9] = molecular target: Muscarinic acetylcholine receptor M1 (Rattus norvegicus) (UniProt P08482); assay: qHTS Assay for Antagonists of Acetylcholine Muscarinic M1 Receptor: Measurement of IP-One Response (AID 944); note: nearly all actives have a fitted effect of over 75% in size; note: potency is the fitted concentration of half-maximal effect
[10] = qHTS Assay for Identification of Small Molecule Agonists for Thrombopoietin (TPO) Signaling Pathway (AID 917); settings: TPO signaling pathway reporter cells, agonist qHTS, stimulated with TPO at its EC50; activity, positive = activation: at 38.5 µM (top of the series); note: potency is the fitted concentration of half-maximal effect; for activity, positive = activation: % is set by controls: 0 for no effect and ±100 for the full control effect
Method in brief: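 Activators of TPO signaling were sought in murine Ba/F3 cells transfected with the human receptor, using a luciferase gene driven by the Glycoprotein IIb promoter; 24-hr compound exposure at 37 C alongside 26 pM TPO, in IL-3-free medium.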

[11] = molecular target: Muscarinic acetylcholine receptor M1 (Rattus norvegicus) (UniProt P08482); assay: qHTS Assay for Antagonists of Acetylcholine Muscarinic M1 Receptor: Kinetic Measurement of Intracellular Calcium Response (AID 943); note: nearly all actives have a fitted effect of over 75% in size; note: potency is the fitted concentration of half-maximal effect
Method in brief: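 CHO cells expressing rat M1 receptor, Fluo-4 loaded, preincubated 10 min with compound, then stimulated with EC80 carbachol (100 nM final). Kinetic calcium fluorescence over 4 min; response taken as peak over basal signal.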

[12] = molecular target: Pyruvate kinase (Leishmania mexicana) (UniProt Q27686); assay: qHTS Validation Assay for Activators of Leishmania Mexicana Pyruvate Kinase (AID 959); settings: purified L. mexicana pyruvate kinase, enzyme activity
Method in brief: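 LmPYK E451W 0.2 nM; 0.5 mM PEP, 0.1 mM ADP, 7 mM MgCl2, 50 mM KCl, imidazole pH 7.2, 0.01% Tween 20, 0.05% BSA; 1 h RT; PKLight luminescence; DMSO-normalized.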

[13] = molecular target: Cytochrome P450 3A4 (Homo sapiens) (UniProt P08684); assay: qHTS Assay for Inhibitors and Substrates of Cytochrome P450 3A4 (AID 884); note: potency is the fitted concentration of half-maximal effect; nearly all actives have a fitted effect of over 50% in size
Method in brief: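 20 nM human CYP3A4 with 25 uM Luciferin-PPXE (at KM) in 200 mM KPO4, preincubated 10 min with compound; NADPH regeneration started a 60 min RT reaction. Luciferin detected by luminescence, normalized to 57 uM ketoconazole as full inhibition.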

[14] = molecular target: Cytochrome P450 2D6 (Homo sapiens) (UniProt P10635); assay: qHTS Assay for Inhibitors and Substrates of Cytochrome P450 2D6 (AID 891); settings: recombinant CYP2D6, luciferin-ME EGE luminescence; activity change, negative = inhibition: at 57.1 µM (top of the series);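 note: luciferin methyl ether substrate demethylated by CYP2D6 with NADPH regeneration; potency is the fitted concentration of half-maximal effect; nearly all actives have a fitted effect of over 60% in size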
Method in brief: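 Human CYP2D6 (5 nM) with 30 uM Luciferin-ME EGE (at Km) in 100 mM KPO4, compound preincubated 10 min, then NADPH regeneration system for 60 min at room temperature. Luciferin read by luminescence; normalized to 1.43 uM quinidine.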

[15] = molecular target: Cytochrome P450 2C19 (Homo sapiens) (UniProt P33261); assay: qHTS Assay for Inhibitors and Substrates of Cytochrome P450 2C19 (AID 899); note: potency is the fitted concentration of half-maximal effect; nearly all actives have a fitted effect of over 60% in size
Method in brief: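 Luminescence readout of luciferin formed from 10uM Luciferin-H EGE (KM level) by 5 nM CYP2C19 in 50mM KPO4. 60 min NADPH-driven reaction at 37C after 10 min compound preincubation; data scaled to 57uM ketoconazole inhibition.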
Tags give direction and shape of the fitted curve or compound fluorescence and quenching.

UniProt P08482, sequence (P08482 whole entry, looked up): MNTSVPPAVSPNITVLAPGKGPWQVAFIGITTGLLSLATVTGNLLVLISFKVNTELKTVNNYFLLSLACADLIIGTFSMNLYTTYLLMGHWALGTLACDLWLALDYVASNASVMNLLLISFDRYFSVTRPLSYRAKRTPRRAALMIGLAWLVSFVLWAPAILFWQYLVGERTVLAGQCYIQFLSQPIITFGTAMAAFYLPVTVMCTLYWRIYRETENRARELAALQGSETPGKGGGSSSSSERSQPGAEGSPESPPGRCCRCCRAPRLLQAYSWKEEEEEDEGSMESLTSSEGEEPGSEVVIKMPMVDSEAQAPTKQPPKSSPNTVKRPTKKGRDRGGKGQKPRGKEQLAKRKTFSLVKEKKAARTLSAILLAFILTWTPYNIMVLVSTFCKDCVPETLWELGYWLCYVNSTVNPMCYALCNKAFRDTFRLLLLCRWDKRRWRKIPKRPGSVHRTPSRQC
UniProt P08684, sequence (P08684 whole entry, looked up): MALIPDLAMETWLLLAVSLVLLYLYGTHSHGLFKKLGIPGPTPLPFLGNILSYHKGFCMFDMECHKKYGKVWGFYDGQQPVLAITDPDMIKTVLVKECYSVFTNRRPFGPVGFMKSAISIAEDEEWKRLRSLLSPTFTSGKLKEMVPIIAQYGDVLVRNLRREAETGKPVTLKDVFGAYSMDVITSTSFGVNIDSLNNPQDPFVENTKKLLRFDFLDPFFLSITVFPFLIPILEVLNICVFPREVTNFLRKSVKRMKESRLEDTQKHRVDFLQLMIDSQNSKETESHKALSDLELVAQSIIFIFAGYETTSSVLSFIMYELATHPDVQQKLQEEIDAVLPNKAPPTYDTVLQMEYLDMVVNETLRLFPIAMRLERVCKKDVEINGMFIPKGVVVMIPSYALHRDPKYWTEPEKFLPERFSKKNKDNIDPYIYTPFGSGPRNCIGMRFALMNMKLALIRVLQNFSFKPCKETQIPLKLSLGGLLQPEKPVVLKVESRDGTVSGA
UniProt Q07343, sequence (Q07343 whole entry, looked up): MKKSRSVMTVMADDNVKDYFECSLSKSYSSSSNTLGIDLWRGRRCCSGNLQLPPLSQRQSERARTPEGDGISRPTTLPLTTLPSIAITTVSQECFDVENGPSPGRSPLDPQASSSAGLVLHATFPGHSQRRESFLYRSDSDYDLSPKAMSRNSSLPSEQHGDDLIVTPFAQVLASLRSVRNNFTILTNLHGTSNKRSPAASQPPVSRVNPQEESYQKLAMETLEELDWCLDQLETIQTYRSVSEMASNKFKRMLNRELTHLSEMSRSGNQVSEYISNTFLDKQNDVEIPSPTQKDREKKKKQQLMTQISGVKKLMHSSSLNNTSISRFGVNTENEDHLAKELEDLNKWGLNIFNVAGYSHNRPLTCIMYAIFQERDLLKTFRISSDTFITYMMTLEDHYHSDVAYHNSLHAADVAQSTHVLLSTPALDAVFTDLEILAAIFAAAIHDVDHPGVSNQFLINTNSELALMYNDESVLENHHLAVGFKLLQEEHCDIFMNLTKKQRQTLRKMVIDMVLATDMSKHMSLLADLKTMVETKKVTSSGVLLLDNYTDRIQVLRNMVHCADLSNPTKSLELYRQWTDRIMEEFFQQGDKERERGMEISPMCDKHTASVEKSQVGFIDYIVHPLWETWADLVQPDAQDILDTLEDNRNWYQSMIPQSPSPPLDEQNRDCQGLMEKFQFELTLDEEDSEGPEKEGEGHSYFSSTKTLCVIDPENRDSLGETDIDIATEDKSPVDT
UniProt P10635, sequence (P10635 whole entry, looked up): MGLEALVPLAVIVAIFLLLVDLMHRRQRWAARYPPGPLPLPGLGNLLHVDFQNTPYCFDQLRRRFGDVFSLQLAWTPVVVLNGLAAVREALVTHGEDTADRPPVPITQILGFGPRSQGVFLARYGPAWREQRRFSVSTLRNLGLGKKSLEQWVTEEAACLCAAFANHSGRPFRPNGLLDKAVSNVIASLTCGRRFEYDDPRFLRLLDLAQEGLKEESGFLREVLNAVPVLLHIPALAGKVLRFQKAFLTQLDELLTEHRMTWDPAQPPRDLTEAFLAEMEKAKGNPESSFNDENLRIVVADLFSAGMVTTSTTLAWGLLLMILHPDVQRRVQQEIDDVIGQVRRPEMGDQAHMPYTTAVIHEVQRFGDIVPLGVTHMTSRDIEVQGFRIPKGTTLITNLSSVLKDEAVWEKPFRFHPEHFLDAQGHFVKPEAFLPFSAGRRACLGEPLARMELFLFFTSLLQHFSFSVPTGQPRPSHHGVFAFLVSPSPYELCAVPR
UniProt P33261, sequence (P33261 whole entry, looked up): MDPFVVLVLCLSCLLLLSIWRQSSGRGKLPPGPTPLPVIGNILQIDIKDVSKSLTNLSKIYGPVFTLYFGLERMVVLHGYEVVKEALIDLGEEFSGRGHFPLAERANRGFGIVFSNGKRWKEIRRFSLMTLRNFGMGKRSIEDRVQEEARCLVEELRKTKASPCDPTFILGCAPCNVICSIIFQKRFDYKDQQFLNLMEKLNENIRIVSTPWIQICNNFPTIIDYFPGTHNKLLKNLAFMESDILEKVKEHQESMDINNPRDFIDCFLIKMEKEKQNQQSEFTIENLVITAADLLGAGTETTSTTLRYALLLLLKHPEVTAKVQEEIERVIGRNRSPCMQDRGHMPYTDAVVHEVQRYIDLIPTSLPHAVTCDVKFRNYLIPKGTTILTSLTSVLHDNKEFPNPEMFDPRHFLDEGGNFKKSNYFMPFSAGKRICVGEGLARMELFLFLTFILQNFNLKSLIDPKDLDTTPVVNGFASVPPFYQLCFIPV
UniProt Q27686, sequence (Q27686 whole entry, looked up): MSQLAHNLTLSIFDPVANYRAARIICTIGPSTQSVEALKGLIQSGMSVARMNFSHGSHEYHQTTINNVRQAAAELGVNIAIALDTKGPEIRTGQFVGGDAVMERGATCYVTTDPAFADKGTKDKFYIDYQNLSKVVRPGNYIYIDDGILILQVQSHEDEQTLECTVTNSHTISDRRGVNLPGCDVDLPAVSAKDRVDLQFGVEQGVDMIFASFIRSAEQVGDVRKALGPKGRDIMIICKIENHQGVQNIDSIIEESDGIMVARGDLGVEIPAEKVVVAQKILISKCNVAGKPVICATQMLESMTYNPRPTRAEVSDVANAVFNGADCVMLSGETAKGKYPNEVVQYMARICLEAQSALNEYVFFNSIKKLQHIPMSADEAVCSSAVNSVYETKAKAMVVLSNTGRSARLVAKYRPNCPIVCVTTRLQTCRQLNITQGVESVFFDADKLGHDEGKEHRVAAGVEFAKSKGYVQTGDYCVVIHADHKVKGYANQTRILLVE
UniProt P11712, sequence (P11712 whole entry, looked up): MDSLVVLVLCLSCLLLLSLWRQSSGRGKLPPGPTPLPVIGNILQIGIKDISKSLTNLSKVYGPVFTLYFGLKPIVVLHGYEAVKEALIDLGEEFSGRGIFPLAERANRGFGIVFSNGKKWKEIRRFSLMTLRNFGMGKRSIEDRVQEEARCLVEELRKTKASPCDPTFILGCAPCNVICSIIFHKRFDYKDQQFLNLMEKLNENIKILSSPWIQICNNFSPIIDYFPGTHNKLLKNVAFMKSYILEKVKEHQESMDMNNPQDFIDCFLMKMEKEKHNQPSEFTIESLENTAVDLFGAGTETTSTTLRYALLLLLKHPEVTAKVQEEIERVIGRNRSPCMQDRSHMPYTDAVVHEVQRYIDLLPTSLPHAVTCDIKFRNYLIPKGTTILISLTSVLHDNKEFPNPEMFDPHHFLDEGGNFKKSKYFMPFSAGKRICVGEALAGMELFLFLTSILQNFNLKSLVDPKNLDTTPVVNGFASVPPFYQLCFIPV

O=C(O)NCc1ccccc1 (tested in a mixture with another compound)
activity change, negative = inhibition [1]: inactive: 4.23% [at 7.69 µM] | Potency [2]: inconclusive: 12.6 µM [activator, single point] | Potency [3]: inconclusive: 3.98 µM [inhibitor, single point] | activation [4]: inactive: 1.79%

CNC(=O)c1cc2c(ccc3ccccc32)oc1=N
activity change, negative = inhibition [1]: inconclusive: 31.7% [activator] | Potency [4]: inconclusive: 7.94 µM [inhibitor, partial curve]

OC[C@@H]1O[C@@H](n2cnc3cncnc32)[C@@H](O)[C@H]1O
activity change, negative = inhibition [1]: inconclusive: -34.9% [inhibitor] [at 38 µM] | Potency [5]: inconclusive: 3.16 µM [activator, full curve, poor fit] | Potency [6]: inconclusive: 22.4 µM [side channel, rising, single point] | activation [4]: inactive: 4.26% | activity change, negative = inhibition [7]: inconclusive: -7.8% [phenotype inactive] | Potency [8]: active: 12.6 µM | Potency [9]: inconclusive: 5.62 µM [inhibitor, partial curve, poor fit]

Cn1c(=O)c2c(nc(Oc3ccc4c(c3)OCO4)n2Cc2ccc(Br)cc2)n(C)c1=O
activity change, negative = inhibition [1]: inconclusive: 35.9% [activator] | Potency [4]: inconclusive: 5.01 µM [inhibitor, partial curve]

CN1CCc2cc(O)c(O)cc2[C@H](c2ccccc2)C1
activity change, negative = inhibition [1]: inconclusive: 46.4% [activator] [at 38 µM] | activity change, negative = inhibition [6]: inconclusive: -44.3% | Potency [4]: inconclusive: 15.8 µM [activator, partial curve, poor fit] | Potency [10]: inconclusive: 10 µM [inhibitor, partial curve] | Potency [7]: active: 10 µM | Potency [11]: inconclusive: 20 µM [inhibitor, partial curve, poor fit] | Potency [9]: inconclusive: 8.91 µM [inhibitor, full curve, poor fit]

C[C@H](Oc1ccc(Oc2cnc3ccc(Cl)cc3n2)cc1)C(=O)O
activity change, negative = inhibition [1]: inconclusive: -33.6% [inhibitor] [at 7.69 µM] | Potency [6]: inconclusive: 0.631 µM [inhibitor, full curve, poor fit] | Potency [4]: inconclusive: 15.8 µM [inhibitor, partial curve] and inconclusive: 501 nM [inhibitor, partial curve] | Potency [10]: inactive | Potency [11]: inactive | Potency [12]: inconclusive: 25.1 µM [activator, partial curve]

CC(=O)N1CCC2(CCN(Cc3nccs3)CC2)CC1
activity change, negative = inhibition [1]: inactive: 3.58% [at 7.69 µM] | Potency [2]: inactive

O=C1Oc2ccccc2C(=O)/C1=C\N1C(=O)N/C(=C\c2ccccc2O)C1=O
activity change, negative = inhibition [1]: inconclusive: -31.5% [inhibitor] [at 7.69 µM] | Potency [13]: inconclusive: 3.98 µM [inhibitor, partial curve] | Potency [14]: inconclusive: 3.98 µM [inhibitor, partial curve] | Potency [15]: inconclusive: 6.31 µM [inhibitor, single point] | activation [4]: inconclusive: -21.5%

CCCC(=O)Nc1ncnc2c1ncn2[C@@H]1O[C@H]2COP(=O)(O)O[C@@H]2[C@@H]1OC(=O)CCC
activity change, negative = inhibition [1]: inactive: 5.83% | Potency [2]: inactive

COc1ccc(-n2c(=O)c(CCc3ccccc3)nc3cnc(N(C)C)nc32)cc1
activity change, negative = inhibition [1]: inactive: 0.546% [at 7.69 µM] | Potency [13]: inconclusive: 3.16 µM [inhibitor, single point] | activation [4]: inactive: 10.3%

FC(F)(F)c1cc(CO[C@@H]2CCCN[C@H]2c2ccccc2)cc(C(F)(F)F)c1
activity change, negative = inhibition [1]: inconclusive: 41.3% [activator] [at 38 µM] | Potency [2]: inconclusive: 5.01 µM [rising, partial curve] | Potency [10]: inconclusive: 10 µM [inhibitor, partial curve] | Potency [7]: active: 10 µM | Potency [9]: inactive

N#Cc1c(NC(=O)C(F)(F)F)sc2c3c(=O)c4ccccc4c(=O)c=3oc3ccccc3c12
activity change, negative = inhibition [1]: inconclusive: 10.5% [activator] [at 7.69 µM] | Potency [2]: inconclusive: 1.58 µM [inhibitor, full curve] | Potency [13]: inconclusive: 3.98 µM [inhibitor, partial curve] | Potency [14]: inconclusive: 0.794 µM [inhibitor, partial curve] | Potency [4]: inconclusive: 0.158 µM [inhibitor, full curve]
